# Experimental data reported in PubChem BioAssay AID2100 (National Center for Advancing Translational Sciences (NCATS), 2009).
# The whole screen tested about 300,000 compounds, of which about 1,200 (0.4%) were called active. This list was built around the results that the source calls inconclusive (neither active nor inactive); the mix of calls is not that of the screen. Calls come from the whole dose curve; as a rule, active = well fitted inhibition curve with a large enough effect; inconclusive = small, poorly fitted or top-dose-only effect, or another doubt; inactive = no such curve, though single readings can be large or run the other way. Potencies beside an inconclusive call are fits to weak or partial responses and may not hold up.
# Target: Lysosomal alpha-glucosidase (Homo sapiens) (UniProt P10253)
# Assay: qHTS Assay for Inhibitors and Activators of Human alpha-Glucosidase Cleavage of Glycogen;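 for activity change, negative = inhibition: 0% = full enzyme reaction and -100% = no-enzyme basal signal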
# Conditions: recombinant GAA, glycogen substrate, Amplex Red glucose oxidase fluorescence; activity change, negative = inhibition: at 76.4 µM (top of the series) unless noted
# In short: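 Natural-substrate format: glycogen cleavage by 4 nM human enzyme, glucose read by Amplex Red coupling (Ex 573, Em 610 nm). Normalized to enzyme and no-enzyme controls.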
# Potency is the fitted concentration of half-maximal effect.
SMILES,Potency,"activity change, negative = inhibition"
CC1(C)C(c2ccccn2)=[N+]([O-])C(C)(C)N1O,"inconclusive: 15.7 µM [inhibitor, partial curve]",–
COc1ccc(OC(=O)NCCc2ccccc2)cc1,"inconclusive: 5.01 µM [inhibitor, partial curve]",–
Cc1ccc(-c2cc(-c3ccco3)c3c(N)c(C(=O)NN)oc3n2)cc1,"inconclusive: 24.9 µM [inhibitor, single point]",–
CCN(CC)c1ccc(C2Nc3cccc4cccc(c34)N2)c(O)c1,"inconclusive: 11.2 µM [inhibitor, partial curve]",–
CCCCNc1c(N)n(CCCC)c(=O)[nH]c1=O,"inconclusive: 39.5 µM [activator, single point]",–
Cc1ccc(-c2nc3ccccn3c2Nc2c(C)cccc2C)o1,"inconclusive: 8.91 µM [inhibitor, full curve]",–
CCOC(=O)C1=C(N)Oc2ccc3ccccc3c2C1c1ccc(O)c(OC)c1 (stereo unspecified),"inconclusive: 5.01 µM [inhibitor, full curve]",–
Cc1ccc(CN2CCN(/N=C/c3ccccc3)CC2)cc1,"inconclusive: 28.2 µM [inhibitor, partial curve]",–
CCCC[C@]12Cc3cc(C#N)ccc3C(O1)c1c(cc(-c3ccccc3)oc1=O)O2,–,inactive: -13.8% [at 15.3 µM]
COCCn1nnnc1C(c1ccc(OC)c(OC)c1)N1CCc2ccccc21 (stereo unspecified),"inconclusive: 28 µM [inhibitor, single point]",–
CC1=CC(=O)C=C(C)C1=NOS(=O)(=O)c1ccccc1,–,inactive: 5.3%
Brc1csc(C=Nc2ccc3c(c2)OCCOCCOCCOCCO3)c1,"inconclusive: 17.6 µM [inhibitor, single point]",–
Oc1ccc(Nc2ncnc3c2oc2ccccc23)cc1,"inconclusive: 11.2 µM [inhibitor, single point]",–
CCOc1ccc(NC(=O)Nc2cccs2)cc1,active: 20 µM,–
COc1cc(-c2nc3cnccn3c2Nc2c(C)cccc2C)ccc1O,active: 14 µM,–
O=C(CSc1nnc2c(Cl)cc(Cl)cn12)N1CCN(S(=O)(=O)c2ccccc2)CC1,"inconclusive: 39.8 µM [inhibitor, partial curve]",–
O=S(=O)(Nc1ccc(O)c(Sc2nc3ccccc3s2)c1)c1cccc2ccccc12,"inconclusive: 12.6 µM [inhibitor, partial curve]",–
CCOC(=O)C1CCCN(C(=O)CSc2ccc(Br)cc2)C1 (stereo unspecified),–,inactive: 0.0327%
C(=N\Nc1nc(-c2ccccc2)cs1)/c1ccco1,"inconclusive: 31.6 µM [inhibitor, single point]",–
C/C(CC(=O)Nc1ccc(N(C)C)cc1)=N\NC(=O)c1ccc([N+](=O)[O-])cc1Cl,"inconclusive: 35.5 µM [inhibitor, partial curve]",–
COc1ccc(NC(=S)Nc2cnc3ccccc3c2)c(OC)c1,"inconclusive: 50.1 µM [inhibitor, single point]",–
Cn1c2ccccc2c(=O)n2c(=O)c3ccccc3cc12,"inconclusive: 24.9 µM [inhibitor, partial curve]",–
COc1cccc(-n2cc(C(=O)NCc3ccccc3OC)c3ccccc3c2=O)c1,active: 39.8 µM,–
COc1ccc(-c2nc(CN3CCC(C(=O)NCCCOC(C)C)CC3)c(C)o2)cc1OC,–,inactive: -8.84% [at 76.3 µM]

SMILES,Potency,"activity change, negative = inhibition"
Cc1csc(N/N=C/c2ccccn2)n1,"inconclusive: 3.55 µM [inhibitor, full curve]",–
COc1ccc(O)c(CN2CCN(CCCc3ccccc3)C(CCO)C2)c1 (stereo unspecified),"inconclusive: 11.2 µM [inhibitor, single point]",–
N#Cc1ccc(Nc2ccccc2)c(N)c1,"inconclusive: 12.5 µM [inhibitor, partial curve]",–
Cc1ccc(NS(=O)(=O)c2cc(N)ccc2Cl)c(C)c1,–,inactive: 5.91%
COc1cc(/C=C/C(=O)OCC(=O)Nc2ccccc2Sc2ccc(Cl)cc2)ccc1O,"inconclusive: 50.1 µM [inhibitor, single point]",–
CC(C)=C1C(=O)NN(c2ccc(C)c(Cl)c2)C1=O,"inconclusive: 7.08 µM [inhibitor, single point]",–
COc1ccc2nc(-c3ccc(N)cc3)[nH]c2c1,–,inactive: -11.8%
O=C1ON=C(c2ccccc2)/C1=C/c1ccco1,"inconclusive: 35.5 µM [inhibitor, partial curve]",–
O=C1c2ccccc2C(=O)c2c1ccc1c(=O)n(C3CCCCC3)[nH]c21,–,inactive: 4.31%
CC(=O)C1=C(O)C(=O)N(c2ccc(S(N)(=O)=O)cc2)C1c1ccc([N+](=O)[O-])cc1 (stereo unspecified),"inconclusive: 14.1 µM [inhibitor, single point]",–
Cc1ccc(C)c(NC(=S)NNC(=S)Nc2ccc(C(C)C)cc2)c1,"inconclusive: 50.1 µM [inhibitor, single point]",–
COCCCn1c(=O)c2ccccc2n2c(=S)[nH]nc12,"inconclusive: 50.1 µM [inhibitor, single point]",–
Cc1cc(C(=O)NNc2cc(Cl)ccc2Cl)no1,"inconclusive: 7.94 µM [inhibitor, partial curve]",–
CCOc1ccc(NC(=O)N2CCC(CN3CCc4ccccc4C3)CC2)cc1,active: 50.1 µM,–
CCc1cccc(NC(=O)CCc2c(C)nc3c(c2C)c(=O)n(C)c(=O)n3C)c1,"inconclusive: 11.2 µM [inhibitor, single point]",–
O=C(NCc1cccnc1)c1nn(-c2ccccc2F)nc1CO,–,inactive: 9.75% [at 76.3 µM]
COc1ccc(NC(=O)Nc2sc3nc4n(c(=O)c3c2C)CCC(C)CC4)cc1OC (stereo unspecified),"inconclusive: 7.94 µM [inhibitor, full curve]",–
O=C(O)c1cccc(N2CCCC2)c1,"inconclusive: 11.2 µM [inhibitor, partial curve]",–
O=c1[nH]c2ccc(Cl)cc2c(-c2ccccc2)c1CN1CCOCC1,"inconclusive: 31.6 µM [activator, single point]",–
Nc1ccc2nc(N3CCOCC3)sc2c1,active: 6.26 µM,–
O=c1c(-c2ccc(Cl)cc2)c[nH]n1-c1ccccc1,"inconclusive: 50.1 µM [inhibitor, single point]",–
CCc1[nH]c(=O)[nH]c1C(C)S(=O)(=O)c1ccc(C)cc1 (stereo unspecified),"inconclusive: 28.2 µM [inhibitor, partial curve]",–
CCN(CC)C(=O)c1sc(NC(=O)C(C)Sc2nc(-c3ccccc3)cc(C(F)(F)F)n2)c(C(=O)OC)c1C (stereo unspecified),–,inactive: 6% [at 76.3 µM]
CN(C)NC(=S)Nc1ccc(Cl)cc1,"inconclusive: 39.8 µM [inhibitor, partial curve]",–

SMILES,Potency,"activity change, negative = inhibition"
COc1ccc(C(=O)NNC2=C(C(=O)C(F)(F)F)CCC2)cc1,"inconclusive: 50.1 µM [inhibitor, single point]",–
Cc1cc(C)cc(Nc2nc3c([nH]2)c(=O)n(C)c(=O)n3C)c1,"inconclusive: 39.5 µM [inhibitor, single point]",–
COC(=O)C1=C(C)NC(=O)/C1=C\c1cc(C)n(-c2ccc(F)cc2)c1C,"inconclusive: 3.98 µM [activator, full curve, poor fit]",–
CCCCCC1(C)NC(=S)N(c2ccccc2)N1 (stereo unspecified),active: 35.5 µM,–
CC(C)NC(=O)CC1Nc2c3ccccc3nc(=S)n2C1=O (stereo unspecified),"inconclusive: 11.1 µM [inhibitor, partial curve]",–
Cc1nc(C)c(-c2csc(Nc3ccc(S(N)(=O)=O)cc3)n2)s1,–,inactive: 0.0985% [at 76.3 µM]
CCOC(=O)c1c(C)oc2c1c1c(c3ccccc32)OCN(Cc2cccnc2)C1,"inconclusive: 25.1 µM [inhibitor, partial curve]",–
Clc1ccc(-c2csc(NNC3=NCCCCC3)n2)cc1,"inconclusive: 28.2 µM [inhibitor, single point]",–
Cc1c(Nc2c3ccccc3nc3ccccc23)c(=O)n(-c2ccccc2)n1C,"inconclusive: 3.14 µM [inhibitor, full curve]",–
NNC(=S)Nc1cccc(-c2n[nH]c(=S)o2)c1,"inconclusive: 20 µM [inhibitor, single point]",–
COc1ccc(-c2nc3ncccn3c2Nc2ccccc2)cc1,"inconclusive: 12.6 µM [inhibitor, partial curve]",–
Cc1ccc(C2C3C(=O)N(c4ccc(C)cc4)C(=O)C3N3CCCN23)cc1 (stereo unspecified),"inconclusive: 39.8 µM [inhibitor, partial curve]",–
CC(CNC(=O)Cn1c(-c2cccs2)cc2ccccc21)c1ccccc1 (stereo unspecified),–,inactive: 5.09% [at 76.3 µM]
Cc1cc(NNC(=O)Nc2cccc(Cl)c2)nc2c1c(C)nn2C,"inconclusive: 24.9 µM [inhibitor, partial curve]",–
CC(=O)c1ccc(NC(=O)CCCc2nc(-c3cccc(C)c3)no2)cc1,–,inactive: 13.7% [at 76.3 µM]
Cc1ccc(C)c(NC(=O)NNC(=O)c2ccc3ccccc3c2O)c1,"inconclusive: 11.2 µM [inhibitor, full curve, poor fit]",–
c1ccc(C2[C@H]3CN(CC4CCCCC4)[C@H](c4ccccc4)C34CC2(c2cccnc2)C4)cc1 (stereo partly specified),–,inactive: -0.648%
O=c1cc(-c2ccc(O)c(O)c2)oc2cc(O)c(C3OC(CO)C(O)C(O)C3O)c(O)c12 (stereo unspecified),"inconclusive: 11.2 µM [inhibitor, partial curve]",–
CCCNC(=S)Nc1ccc(Nc2ccccc2)cc1,active: 15.7 µM,–
CN(C)c1ccc(CC(=O)c2nc3ccccc3s2)cc1,"inconclusive: 28.2 µM [inhibitor, single point]",–
Nc1c(S(=O)(=O)c2ccccc2)c2nc3ccccc3nc2n1C1CC1,–,inactive: 7.93%
COCCNC(=O)CN1c2ccccc2CC1C (stereo unspecified),"inconclusive: 22.4 µM [inhibitor, partial curve]",–
CCOC(=O)C1=C(CN2CCN(c3cccc(OC)c3)CC2)NC(=O)NC1c1ccc(OC)cc1 (stereo unspecified),–,inactive: -6.65% [at 76.3 µM]
